# Test results: the BET-seq Pho4 binding data (Le et al. 2018)
# The list shows a part of the results. The energies were worked out here from pooled read counts, against the library average; single values are noisy.
# Target: T1, Pho4 (S. cerevisiae) (UniProt P07270)
# T1 sequence: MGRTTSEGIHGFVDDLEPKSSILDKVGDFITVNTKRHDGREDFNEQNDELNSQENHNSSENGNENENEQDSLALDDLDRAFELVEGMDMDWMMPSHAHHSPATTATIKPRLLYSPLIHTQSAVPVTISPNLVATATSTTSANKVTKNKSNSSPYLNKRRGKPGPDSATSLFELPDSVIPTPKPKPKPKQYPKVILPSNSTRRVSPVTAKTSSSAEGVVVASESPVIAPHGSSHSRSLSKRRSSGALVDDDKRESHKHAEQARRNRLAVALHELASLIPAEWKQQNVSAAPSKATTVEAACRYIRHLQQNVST
# Assay: relative binding free energy (BET-seq); higher = weaker binding
# Details: reference: library average
row,Sequence,relative binding free energy [kcal/mol]
1,CTTGGCACGTGAATGG,0.19
2,TAGTGCACGTGGGGGT,-0.15
3,TAGGGCACGTGATTCG,-0.08
4,GGTTGCACGTGGTAAA,0.15
5,CTTAACACGTGGGTGG,-0.2
6,ATGATCACGTGTTAAT,0.2
7,CTGGGCACGTGAAGTG,0.03
8,TGACGCACGTGTCGGG,-0.09
9,GTTCGCACGTGTGTGA,0
10,TATGACACGTGTTGGG,0.15
11,TGACGCACGTGTGGGT,0.02
12,CGGCACACGTGTGGTT,0.2
13,CGATACACGTGTAGGT,0.19
14,GGTTACACGTGTGGAG,0.27
15,GTTGTCACGTGGCGGT,0.14
16,GCTGTCACGTGTTGTT,0.19
17,GCTGTCACGTGAGGCG,0.25
18,TTAAGCACGTGTGTGT,-0.21
19,ATGCGCACGTGCGGTT,-0.26
20,TGGCGCACGTGATTAT,0.03
21,GGTAACACGTGGTGCG,0.01
22,GTTGGCACGTGACTTT,0.13
23,AATGTCACGTGTGACG,0.08
24,ATTCACACGTGAATGG,0.3
25,TGAGACACGTGTGGTG,0.12
26,GATATCACGTGGGTTT,0.19

row,Sequence,relative binding free energy [kcal/mol]
1,ATCTGCACGTGGGGAT,-0.14
2,TATTTCACGTGCTATA,0.16
3,ATGGTCACGTGTTGGT,0.17
4,GGTAGCACGTGACGAG,0.28
5,GTGGTCACGTGTACAG,0.22
6,TTGACCACGTGGGTTT,-0.2
7,GTTGGCACGTGGAGCT,-0.02
8,TGTAGCACGTGATGCT,-0.02
9,GCGAGCACGTGTCTGG,0.09
10,ATGTTCACGTGAATGC,0.45
11,TTTAGCACGTGATCGG,-0.09
12,GAAAGCACGTGTGTAG,0.17
13,ATAATCACGTGGATGG,0.01
14,TATGTCACGTGGGGTG,-0.08
15,CGGTTCACGTGTGTAG,0.32
16,GGATGCACGTGGACGG,-0.01
17,CTGTGCACGTGCTTTA,-0.06
18,TTGAACACGTGTGGCG,0.11
19,GTTAACACGTGGAAGT,0.05
20,GGTGTCACGTGCTGTT,0.11
21,CGATTCACGTGAGCGG,0.42
22,TGAAGCACGTGTGTAA,-0.09
23,AGAGCCACGTGTGGGA,-0.07
24,CTTGTCACGTGGAATT,0.23
25,GGGTACACGTGGGAAC,0.12
26,GTGGTCACGTGTGTAG,0.2

row,Sequence,relative binding free energy [kcal/mol]
1,CGGCGCACGTGGGTTG,-0.43
2,TTAGTCACGTGAGGAT,0.18
3,TGGATCACGTGAAGTT,0.37
4,AATGGCACGTGGTGGT,-0.07
5,TTTTACACGTGAATAT,0.37
6,GTCTTCACGTGTGCGT,0.21
7,GTTGTCACGTGGTCGG,0.07
8,TAGGGCACGTGGACAT,-0.15
9,GCGGACACGTGCGGGG,0.01
10,TTCTGCACGTGGAAGT,0.07
11,AAAGACACGTGTGTGA,0.04
12,TACATCACGTGATGGG,0.27
13,GCGGTCACGTGCGGGG,0.04
14,TGGATCACGTGAGGGG,0.33
15,GCTCTCACGTGAGGGT,0.37
16,GCAGGCACGTGGGGAT,-0.14
17,CGTATCACGTGGAAGT,0.26
18,GATTACACGTGTTGTG,0.23
19,ATGTTCACGTGGTCTG,0.09
20,AGTACCACGTGGGTTT,-0.25
21,GTCGACACGTGTGGCG,0.16
22,TTGTACACGTGATATT,0.18
23,ACTCACACGTGGGGGG,-0.13
24,AAAAGCACGTGAGTAG,0.29
25,GACTTCACGTGTATTT,0.31
26,GGTCGCACGTGGGATT,-0.05

row,Sequence,relative binding free energy [kcal/mol]
1,GTTTGCACGTGAATGA,0.23
2,GGTATCACGTGGCACT,0.31
3,GTCGTCACGTGAGGGG,0.2
4,GGGGCCACGTGGTTGG,-0.1
5,ACGGTCACGTGGGTCG,-0.14
6,ATGAGCACGTGAGTGG,0.17
7,GAATTCACGTGTTATG,0.24
8,TGTTCCACGTGTGAGT,0.13
9,GGGTTCACGTGTTGAA,0.45
10,ATCGCCACGTGTGGGG,-0.17
11,AGGTACACGTGGGGTC,-0.09
12,GAGGGCACGTGTTGTT,-0.07
13,GTGTGCACGTGGAGTA,-0.01
14,ATGGACACGTGTGTGT,0.02
15,TCGGGCACGTGGTTAG,-0.26
16,AGGGACACGTGTGCGT,0
17,CTAATCACGTGTGGGT,0.11
18,GGCGGCACGTGGAGGA,-0.18
19,GGGACCACGTGAGGGG,0.21
20,TGCTTCACGTGGGAGT,0.09
21,TTATTCACGTGAAGTA,0.29
22,ATTAACACGTGAAGTG,0.2
23,AGATGCACGTGTGGAA,0.02
24,AGTTGCACGTGGAAGA,0
25,TTAAACACGTGTATGT,0.03
26,CTTGTCACGTGCGGTT,-0.01

row,Sequence,relative binding free energy [kcal/mol]
1,TGTCCCACGTGGGGGG,-0.28
2,TGTACCACGTGTTAGG,-0.12
3,TGATCCACGTGCGGGT,-0.03
4,ACTGGCACGTGAGGAG,0.06
5,TAGGTCACGTGACAGG,0.22
6,CAATACACGTGTTGGT,-0.03
7,TATGTCACGTGTCGTA,0.11
8,CGGGTCACGTGGTACA,0.11
9,ATTCTCACGTGGTTAT,-0.03
10,TTTTTCACGTGTGGTT,0.29
11,CTGGGCACGTGCGTGT,-0.21
12,TGGTGCACGTGTAAAG,0.13
13,TCGTACACGTGGGTCG,-0.04
14,AGGAACACGTGGCGTT,0.01
15,AGTGGCACGTGAAATG,0.01
16,ACGTGCACGTGGCGGG,-0.15
17,GGTTACACGTGGGGAC,0.15
18,GGGGTCACGTGGACCG,0.04
19,CTATTCACGTGTGGAT,0.12
20,ATAGTCACGTGATAGG,0.18
21,TTGCTCACGTGTTGAA,0.12
22,TGTTTCACGTGAAGCG,0.38
23,ATGTGCACGTGAGTTG,0.19
24,GGGATCACGTGTTGCA,0.12
25,AGTTGCACGTGGTTGC,-0.01
26,GGTTACACGTGTGTGA,0.11

row,Sequence,relative binding free energy [kcal/mol]
1,TCGTCCACGTGTTGTT,0.12
2,AGGGGCACGTGCCAGG,-0.26
3,GTTGTCACGTGTGAAG,0.19
4,TACTGCACGTGGAGGC,0.14
5,TTCGTCACGTGGTTAT,0.07
6,TGGTTCACGTGCTTAT,0.26
7,AGTTGCACGTGTGAAG,0.08
8,AGTGCCACGTGTGGGC,-0.07
9,GGGTGCACGTGAAAGA,0.26
10,ATTGTCACGTGGTTAA,0.05
11,GTTATCACGTGCGCGT,0.13
12,GTGGCCACGTGGTGAC,-0.01
13,GTGGTCACGTGGATCA,0.28
14,TGGGCCACGTGGGATA,-0.17
15,ATTGACACGTGGGAAT,-0.12
16,CGGGGCACGTGGCAGG,-0.23
17,ATTGGCACGTGGATAG,0
18,TCTAGCACGTGGGTAT,-0.32
19,TAAGGCACGTGAAATG,0.31
20,GTTGTCACGTGGAATA,0.13
21,TTTTTCACGTGAGTTT,0.36
22,ATGTTCACGTGAGTAT,0.25
23,TTAGTCACGTGTGCTC,0.15
24,ATTGTCACGTGGGTAA,-0.02
25,TATTCCACGTGTGGGT,0.14
26,GTTGGCACGTGACGCG,0.04

row,Sequence,relative binding free energy [kcal/mol]
1,TTATTCACGTGGGCGG,0.15
2,TGTGTCACGTGTACAA,0.13
3,GGGGCCACGTGAATGG,0.22
4,TGGGGCACGTGGTATG,-0.1
5,GTGTTCACGTGCGGCT,0.18
6,TGAAACACGTGTGTGG,0.04
7,AGGGACACGTGTATGT,0
8,TCAGTCACGTGGGGTT,-0.08
9,GATTGCACGTGATGCG,0.09
10,ATGGTCACGTGGGGGG,-0.02
11,AGGTGCACGTGGTGCA,-0.1
12,TTGTACACGTGTTGCT,0.03
13,GAGTTCACGTGAGATT,0.5
14,GGCCTCACGTGAGGTG,0.3
15,TACTTCACGTGTGTAG,0.16
16,GTAAGCACGTGAGGGA,0.23
17,ATCATCACGTGGGGAG,0
18,TAGTACACGTGTTGGA,-0.05
19,CTTGTCACGTGTAGAG,0.04
20,CTGTGCACGTGTGAAG,-0.03
21,TTTAGCACGTGCTGGC,0.01
22,TAGGACACGTGGGCTT,-0.08
23,AATTCCACGTGTATGG,0.19
24,TCCGTCACGTGGTGGT,0.06
25,GGTGCCACGTGTCTTG,0
26,ATTAACACGTGCGGGT,-0.08

row,Sequence,relative binding free energy [kcal/mol]
1,TTTAACACGTGGGTAG,-0.12
2,TGGGGCACGTGTGCGC,-0.1
3,AAGTGCACGTGTTATA,-0.06
4,TAATACACGTGGCTGT,0.09
5,GTAGTCACGTGCGGAA,0.08
6,GTCCGCACGTGGGTTT,-0.13
7,TTTGACACGTGAGTAA,0.19
8,TTTTACACGTGTGCCG,0.12
9,CTGAGCACGTGGTAAG,-0.03
10,ATGTACACGTGGCTGG,-0.12
11,AGCGTCACGTGTTTGG,0.13
12,GTTTTCACGTGCTATG,0.21
13,TGGACCACGTGTCTGG,0.09
14,AGCGTCACGTGATAGG,0.2
15,AATTGCACGTGCATGT,-0.1
16,TTGTACACGTGATGGT,0.26
17,GGGCGCACGTGCATGT,-0.11
18,TGTTGCACGTGGTTCT,-0.04
19,CGCGTCACGTGGGATG,-0.18
20,CAGGACACGTGGTGAG,0.04
21,CTTGGCACGTGCGGGC,-0.26
22,ATGTCCACGTGTTGCT,0.1
23,GTCGGCACGTGGGGCT,-0.13
24,GAGGCCACGTGGGGTG,-0.25
25,TGGTACACGTGTCATA,0.05
26,TGGAGCACGTGATTGG,0.01

row,Sequence,relative binding free energy [kcal/mol]
1,TTTGACACGTGACTAG,0.21
2,GTCGTCACGTGTAGTT,0.16
3,GTACGCACGTGAGCGG,0.19
4,TTTGACACGTGGGAAC,0.04
5,TTTGCCACGTGTCGTT,-0.04
6,TTAGCCACGTGGATGT,-0.1
7,GGCAACACGTGATTGT,0.27
8,TACCTCACGTGGTGGT,0.24
9,TAGCTCACGTGTGGGG,0.31
10,GCTAACACGTGGTTTG,-0.01
11,TTGCGCACGTGAGGTC,0.21
12,ATTTTCACGTGCGGTC,0.37
13,GGGCTCACGTGTTCGG,0.24
14,TGTAGCACGTGCTTTT,-0.15
15,AGGGACACGTGTGGGC,0.13
16,CTTGTCACGTGTGCAG,0.15
17,GATCGCACGTGGCGTG,-0.05
18,GGGGACACGTGGTATT,0.05
19,TATTCCACGTGGATTG,0.06
20,TTAGGCACGTGGCAGA,-0.19
21,GTGCTCACGTGCTTGT,0.27
22,GTTCGCACGTGTATGG,0
